Assay results reported in the supplement of paper PMC8728848.
This is one part of the list.

How the values were obtained:
Assay in all cases: glycan array binding signal (z-score within array); higher = stronger binding
Details in all cases: glycan notation: IUPAC condensed, linker removed
[1] = target: Gal(b1-3)Gal(b1-4)GlcNAc(b1-2)Man(a1-3)[Gal(b1-3)Gal(b1-4)GlcNAc(b1-2)Man(a1-6)]Man(b1-4)GlcNAc(b1-4)GlcNAc
Procedure, shortened: (§1)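 Columns mapping to the same glycan were averaged after glycan names were converted to IUPAC-condensed notation. The data come from 3228 arrays in the Consortium for Functional Glycomics database, limited to those with an available protein sequence. Binding is reported as a within-array Z-score averaged across arrays of one protein sequence and across linkers.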

[2] = target: Gal(b1-3)GalNAc
Procedure, shortened: as §1

[3] = target: Gal(b1-3)GalNAc(a1-3)[Fuc(a1-2)]Gal(b1-4)Glc
Procedure, shortened: as §1

[4] = target: Gal(b1-3)GalNAc(a1-3)[Fuc(a1-2)]Gal(b1-4)GlcNAc
Procedure, shortened: as §1

[5] = target: Gal(b1-3)GalNAc(b1-3)Gal(a1-4)Gal(b1-4)Glc
Procedure, shortened: as §1

[6] = target: Gal(b1-3)GalNAc(b1-4)Gal(b1-4)Glc
Procedure, shortened: as §1

[7] = target: Gal(b1-3)GalNAc(b1-4)[Neu5Ac(a2-3)]Gal(b1-4)Glc
Procedure, shortened: as §1

[8] = target: Gal(b1-3)GlcNAc
Procedure, shortened: as §1

[9] = target: Gal(b1-3)GlcNAc(a1-6)Gal(b1-4)GlcNAc
Procedure, shortened: as §1

[10] = target: Gal(b1-3)GlcNAc(b1-2)Man(a1-3)[Gal(b1-3)GlcNAc(b1-2)Man(a1-6)]Man(b1-4)GlcNAc(b1-4)GlcNAc
Procedure, shortened: as §1

[11] = target: Gal(b1-3)GlcNAc(b1-2)Man(a1-3)[Gal(b1-3)GlcNAc(b1-2)Man(a1-6)]Man(b1-4)GlcNAc(b1-4)[Fuc(a1-6)]GlcNAc
Procedure, shortened: as §1

[12] = target: Gal(b1-3)GlcNAc(b1-2)[Gal(b1-3)GlcNAc(b1-6)]Man(a1-6)[Gal(b1-3)GlcNAc(b1-2)Man(a1-3)]Man(b1-4)GlcNAc(b1-4)GlcNAc
Procedure, shortened: as §1

[13] = target: Gal(b1-3)GlcNAc(b1-3)Gal(b1-3)GlcNAc
Procedure, shortened: as §1

[14] = target: Gal(b1-3)GlcNAc(b1-3)Gal(b1-4)Glc
Procedure, shortened: as §1

[15] = target: Gal(b1-3)GlcNAc(b1-3)Gal(b1-4)GlcNAc
Procedure, shortened: as §1

[16] = target: Gal(b1-3)GlcNAc(b1-3)Gal(b1-4)GlcNAc(b1-6)[Gal(b1-3)GlcNAc(b1-3)]Gal(b1-4)Glc
Procedure, shortened: as §1

[17] = target: Gal(b1-3)GlcNAc(b1-3)Gal(b1-4)[Fuc(a1-3)]GlcNAc(b1-6)[Gal(b1-3)GlcNAc(b1-3)]Gal(b1-4)Glc
Procedure, shortened: as §1

[18] = target: Gal(b1-3)GlcNAc(b1-3)GalNAc
Procedure, shortened: as §1

[19] = target: Gal(b1-3)GlcNAc(b1-6)Gal(b1-4)GlcNAc
Procedure, shortened: as §1

[20] = target: Gal(b1-3)[Fuc(a1-4)]GlcNAc
Procedure, shortened: as §1

[21] = target: Gal(b1-3)[Fuc(a1-4)]GlcNAc(b1-2)Man(a1-3)[Gal(b1-3)[Fuc(a1-4)]GlcNAc(b1-2)Man(a1-6)]Man(b1-4)GlcNAc(b1-4)GlcNAc
Procedure, shortened: as §1

[22] = target: Gal(b1-3)[Fuc(a1-4)]GlcNAc(b1-2)Man(a1-3)[Gal(b1-3)[Fuc(a1-4)]GlcNAc(b1-2)Man(a1-6)]Man(b1-4)GlcNAc(b1-4)[Fuc(a1-6)]GlcNAc
Procedure, shortened: as §1

[23] = target: Gal(b1-3)[Fuc(a1-4)]GlcNAc(b1-3)Gal(b1-3)[Fuc(a1-4)]GlcNAc
Procedure, shortened: as §1

[24] = target: Gal(b1-3)[Fuc(a1-4)]GlcNAc(b1-3)Gal(b1-4)GlcNAc
Procedure, shortened: as §1

[25] = target: Gal(b1-3)[Fuc(a1-4)]GlcNAc(b1-3)Gal(b1-4)[Fuc(a1-3)]GlcNAc
Procedure, shortened: as §1

[26] = target: Gal(b1-3)[GlcNAc(b1-6)]GalNAc
Procedure, shortened: as §1

[27] = target: Gal(b1-3)[Neu5Ac(a2-6)]GalNAc
Procedure, shortened: as §1

[28] = target: Gal(b1-3)[Neu5Ac(a2-6)]GlcNAc(b1-6)Gal(b1-4)Glc
Procedure, shortened: as §1

[29] = target: Gal(b1-3)[Neu5Ac(b2-6)]GalNAc
Procedure, shortened: as §1

[30] = target: Gal(b1-4)Gal
Procedure, shortened: as §1

[31] = target: Gal(b1-4)GalNAc(a1-3)[Fuc(a1-2)]Gal(b1-4)GlcNAc
Procedure, shortened: as §1

[32] = target: Gal(b1-4)GalNAc(b1-3)[Fuc(a1-2)]Gal(b1-4)GlcNAc
Procedure, shortened: as §1

[33] = target: Gal(b1-4)Glc
Procedure, shortened: as §1

[34] = target: Gal(b1-4)Glc6S
Procedure, shortened: as §1

[35] = target: Gal(b1-4)GlcNAc
Procedure, shortened: as §1

[36] = target: Gal(b1-4)GlcNAc(a1-6)Gal(b1-4)GlcNAc
Procedure, shortened: as §1

[37] = target: Gal(b1-4)GlcNAc(b1-2)Man
Procedure, shortened: as §1

[38] = target: Gal(b1-4)GlcNAc(b1-2)Man(a1-3)Man(b1-4)GlcNAc(b1-4)GlcNAc
Procedure, shortened: as §1

B1: Gz-CVNH (Gibberella zeae) (protein)
chain: MGSSHHHHHHSSGLVPRGSHMGNFHESSNNIWLEDGHILHAECGNGEGDYVESTLDLDYYIGNDDGSFSWGGENFSGSASNITLDIEGDDNIPVLRAELNPMDGDPVEANVNLSERIGNDCGTLIFLA
- glycan array binding signal (z-score) [1]: -0.135
- glycan array binding signal (z-score) [2]: -0.113
- glycan array binding signal (z-score) [3]: -0.149
- glycan array binding signal (z-score) [4]: -0.164
- glycan array binding signal (z-score) [5]: -0.114
- glycan array binding signal (z-score) [6]: -0.154
- glycan array binding signal (z-score) [7]: -0.15
- glycan array binding signal (z-score) [8]: -0.107
- glycan array binding signal (z-score) [9]: -0.113
- glycan array binding signal (z-score) [10]: -0.068
- glycan array binding signal (z-score) [11]: -0.138
- glycan array binding signal (z-score) [12]: -0.096
- glycan array binding signal (z-score) [13]: -0.143
- glycan array binding signal (z-score) [14]: -0.156
- glycan array binding signal (z-score) [15]: -0.089
- glycan array binding signal (z-score) [16]: -0.103
- glycan array binding signal (z-score) [17]: -0.092
- glycan array binding signal (z-score) [18]: -0.13
- glycan array binding signal (z-score) [19]: -0.143
- glycan array binding signal (z-score) [20]: -0.15
- glycan array binding signal (z-score) [21]: -0.143
- glycan array binding signal (z-score) [22]: -0.083
- glycan array binding signal (z-score) [23]: -0.126
- glycan array binding signal (z-score) [24]: -0.128
- glycan array binding signal (z-score) [25]: -0.106
- glycan array binding signal (z-score) [26]: -0.118
- glycan array binding signal (z-score) [27]: -0.15
- glycan array binding signal (z-score) [28]: -0.1
- glycan array binding signal (z-score) [29]: -0.129
- glycan array binding signal (z-score) [30]: -0.151
- glycan array binding signal (z-score) [31]: -0.151
- glycan array binding signal (z-score) [32]: -0.137
- glycan array binding signal (z-score) [33]: -0.136
- glycan array binding signal (z-score) [34]: -0.142
- glycan array binding signal (z-score) [35]: -0.141
- glycan array binding signal (z-score) [36]: -0.121
- glycan array binding signal (z-score) [37]: -0.149
- glycan array binding signal (z-score) [38]: -0.132
